Measurements taken from paper PMC4336329 (PLoS ONE, 2015).
Among all 310,000 compounds or so, about 2,200 (0.71%) showed an effect of 50% or more. The effect is printed as a negative number. The list shows a part of the results. Where a SMILES comes first, the peptide text is derived from it. [ ]: non-standard residue; d: D form. The star is where a group is joined. ξ: configuration not given here. Tos = Cc1ccc(S(=O)(=O)*)cc1; Inp = O=C(O)C1CCNCC1; ξP = O=C(O)C1CCCN1

target: human ether-à-go-go-related gene (hERG) potassium channel (human, UniProt Q12809); assay: primary screen, population patch clamp on CHO cells stably expressing hERG
Sequence (Q12809 whole entry, looked up): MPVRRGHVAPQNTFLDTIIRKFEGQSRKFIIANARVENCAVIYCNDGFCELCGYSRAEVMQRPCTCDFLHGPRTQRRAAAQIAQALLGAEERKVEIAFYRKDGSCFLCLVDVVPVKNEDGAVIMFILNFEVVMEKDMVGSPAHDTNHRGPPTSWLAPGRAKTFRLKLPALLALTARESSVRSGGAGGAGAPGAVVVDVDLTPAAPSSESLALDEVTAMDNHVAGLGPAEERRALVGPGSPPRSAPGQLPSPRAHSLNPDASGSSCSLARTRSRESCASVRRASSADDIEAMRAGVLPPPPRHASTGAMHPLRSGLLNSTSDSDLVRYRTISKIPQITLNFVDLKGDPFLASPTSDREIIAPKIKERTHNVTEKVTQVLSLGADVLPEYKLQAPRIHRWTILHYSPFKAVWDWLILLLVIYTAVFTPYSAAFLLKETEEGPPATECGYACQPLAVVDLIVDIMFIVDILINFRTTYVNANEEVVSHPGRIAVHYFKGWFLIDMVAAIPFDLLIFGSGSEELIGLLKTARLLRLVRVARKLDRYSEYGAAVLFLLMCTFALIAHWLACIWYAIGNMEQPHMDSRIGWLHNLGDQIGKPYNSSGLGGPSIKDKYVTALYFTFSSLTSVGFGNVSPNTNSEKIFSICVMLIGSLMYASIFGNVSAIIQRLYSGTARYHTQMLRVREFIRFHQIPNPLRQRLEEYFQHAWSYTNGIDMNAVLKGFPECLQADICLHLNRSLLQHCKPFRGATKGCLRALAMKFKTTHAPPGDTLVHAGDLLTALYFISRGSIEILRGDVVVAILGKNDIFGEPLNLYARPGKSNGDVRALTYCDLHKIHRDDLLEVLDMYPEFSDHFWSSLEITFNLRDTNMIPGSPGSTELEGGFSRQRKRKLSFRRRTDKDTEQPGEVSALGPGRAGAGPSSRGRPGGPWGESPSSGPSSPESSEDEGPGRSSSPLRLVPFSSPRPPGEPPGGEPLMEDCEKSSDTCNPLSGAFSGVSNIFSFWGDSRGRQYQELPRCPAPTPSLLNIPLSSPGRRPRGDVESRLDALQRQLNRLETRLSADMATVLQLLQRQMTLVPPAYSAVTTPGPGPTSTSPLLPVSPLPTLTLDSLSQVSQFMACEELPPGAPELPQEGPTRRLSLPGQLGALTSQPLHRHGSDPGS

Structure (SMILES) | hERG current change (%, negative = inhibition) at 1uM [%]
O=C(CN1CCCCCCC1)N/N=C/c1ccc([N+](=O)[O-])o1 | -13.3
COc1ccc(C(=O)NCCCNC(=O)c2cccnc2)cc1Br | 12.8
COc1ccc(-c2cc(C(=O)N3CCCCC3)c3ccccc3n2)cc1OC | 6.7
CSc1nnc2c(n1)OC(c1ccsc1)N(C(C)=O)c1ccccc1-2 (centres unmarked) | -11.9
CCC(C)n1c(=S)[nH]c2ccccc2c1=O (centres unmarked) | 7.24
O=S1(=O)NC(CC2=CCCCC2)C2CCCCC2O1 (centres unmarked) | 14.8
O=C(NNc1cccc(Cl)n1)Nc1ccc(Cl)cc1 | 13.3
Cn1ccnc1C(=O)c1ccc(Cl)c(S(=O)(=O)N2CCOCC2)c1 | 12.4
COc1ccc(Cl)cc1NC(=O)COc1ccc(S(=O)(=O)N2CCOCC2)cc1C | 11.2
CC(Sc1nncs1)C(=O)NC1CCCCC1C (centres unmarked) | 13.1
CSC1=NCCN1C(=O)Cc1cccc2ccccc12 | 11.2
O=C(Nc1cc([N+](=O)[O-])ccc1O)NC1CCS(=O)(=O)C1 (centres unmarked) | 12.3
Cc1nnc(Nc2ccc(C(=O)N3CCOCC3)cc2)c2ccccc12 | 8.96
CCCn1c(N)nc2ccccc21 | 9.27
COC(=O)c1ccccc1OC(=O)c1cccnc1 | 12.2
CN(C)S(=O)(=O)c1ccc(NC(=O)CN2CCN(c3ccccn3)CC2)cc1 | 12.9
CC(=O)Nc1ccc(NC(=O)c2ccc(COc3ccc(C)cc3)o2)cc1 | 12.6
Brc1ccccc1-c1nc2c3ccccc3ncn2n1 | 6.3
CC(C)NC(=O)c1ccc2c(=O)n(CC3CCCO3)c(=S)[nH]c2c1 (centres unmarked) | 8.36
Cc1ccccc1-n1c(SCC(=O)N/N=C/c2sccc2C)nc2ccccc2c1=O | 8.81
COc1ccc(/C=C(\C#N)C(=O)ONC2=NCCCCC2)cc1 | 5.63
Cc1ccc(S(=O)(=O)N2CCC(C(=O)N3CCCC3C(=O)N[C@@H](CC(C)C)C(=O)NCC(N)=O)CC2)cc1 (stereo partly drawn) ({Tos-Inp}-[ξP]-Leu-Gly-NH2) | -5.02
Cl.Clc1ccc(Nc2nc3cccnc3s2)cc1 | 16.8
O=c1[nH]cnc2sc3c(c12)CCN(Cc1ccccc1)C3 | 13.2
COC(=O)c1ccc(Cc2ccccc2)o1 | 8.64
Cl.N/C(=N\N=C/c1ccc(Br)cc1)N/N=C\c1ccc(Br)cc1 | 2.47
